The text below walks through data of PubChem BioAssay (NCI).

The structures appear in SMILES notation. Values joined by “and” are separate entries in the source; they are usually repeats but may differ in a detail not shown here. Identical values can stand only once.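 Protocol summary: plate cells (96-well), add compound at 5 concentrations, incubate 48 h, interpolate endpoints linearly. GI50 is the concentration that inhibits growth by half. At the TGI there is no net growth.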

In this assay the test system is NCI-H322M lung. The assay can be described thus: inhibition of tumour cell growth, NCI panel, 48 h.
For the molecule `N#Cc1c(=O)n(-c2ccccc2)c(O)c2c(N)n[nH]c12`, the TGI was greater than 100 µM.

For the molecule `O=[N+]([O-])c1ccc(C=NC2CCCCC2)cc1`, the TGI is greater than 100 µM.

In the case of `CN1CCN(c2ccc3[nH]c(-c4cc(O)c5c(nc(CO)n5C)c4O)nc3n2)CC1`, the TGI was greater than 100 µM.

`COc1cc2cc(Oc3ccc(NC(=O)Nc4ccc(Cl)c(C(F)(F)F)c4)cc3)c(C)nc2cc1OCCN1CCOCC1`: the GI50 is 2.82 µM and the TGI was determined as 11.2 µM.

The molecule `CC(C)NC(NC(C)C)=C(S(=O)(=O)C(F)(F)C(F)(F)C(F)(F)C(F)(F)F)S(=O)(=O)C(F)(F)C(F)(F)C(F)(F)C(F)(F)F` registered a TGI greater than 100 µM.

In the case of `C[N+]1=C(/C=C/c2ccc(O)c3ncccc23)C(C)(C)c2ccccc21`, the GI50 was 3.03 µM and the TGI amounted to 12.7 µM.

Consider `Cc1ccc(-c2nc3nc(-c4ccccc4)nc(N4CCCNCC4)c3o2)cc1`, for which the GI50 is 1.81 µM and the TGI was found to be 3.2 µM.

Turning to `CC1(C)C2CCC(CN)(C2)C1N` (stereo not drawn), the TGI was greater than 100 µM.

With `CC(C)(C)C(=O)OCOP(=O)(OCOC(=O)C(C)(C)C)OCC1OC(n2ccc(=O)[nH]c2=O)C(N=[N+]=[N-])C1O` (stereo not drawn), the TGI worked out at 19 µM.

In turn, `COc1cc(/C=N\N(C)C)cc(/C=N/N(C)C)c1O` displayed a TGI greater than 100 µM.

The molecule `COc1ccc2c(c1)C(=O)Cc1ccccc1CC2` yielded a TGI greater than 100 µM.

Regarding `Cc1cccc(C(C)C)c1NC(=O)/C(Cc1c([N+](=O)[O-])cccc1[N+](=O)[O-])=N/NC(=O)CC#N`, the TGI was greater than 100 µM.

With `CC[C@@]1(c2ccccc2)C2=C(CC(C)(C)CC2=O)Nc2[nH]ncc21`, the GI50 is greater than 100 µM and the TGI was greater than 100 µM.

Turning to `CCN(CC)CCn1nc(N)c2nc3ccccc3nc21`, the TGI is greater than 100 µM.

For the molecule `NCCCCC(NC(=O)C(N)Cc1ccc(O)cn1)C(=O)O` (stereo not drawn), the TGI was greater than 100 µM.

Take `O=[N+]([O-])c1ccc2c(c1)S(=O)(=O)N1Cc3ccccc3CCN21`: the TGI was greater than 100 µM.

For the molecule `CCOCc1c(C)cc(C)c(C2C(C(=O)c3ccccc3)N3c4ccccc4C=CC3C2(C#N)C(=O)OCC)c1C` (stereo not drawn), the TGI was greater than 100 µM.

For the molecule `CC(=N)OC1CC2CCC1(C)C2(C)C` (stereo not drawn), the TGI is greater than 100 µM.

Molecule `CC(C)(C)OC(=O)CN1C(=O)CC1CC(=O)c1ccccc1` (stereo not drawn) returned a TGI of 36.9 µM.

Turning to `O=S(=O)(SC1=NCCN1)c1ccc2ccccc2c1`, the TGI is greater than 100 µM.

`Cc1cc2c(cc1C(=O)CCC(=O)O)CC1(C2)Cc2cc(C)c(C(=O)CCC(=O)O)cc2C1` had a TGI greater than 100 µM.

For the molecule `O=S(=O)(NC1=NCCN1C(=S)SN1CCn2c1nsc2=S)c1cccc(Cl)c1`, the GI50 is 13.3 µM and the TGI amounted to 35.4 µM.

`CC(SC(=S)N1CCOCC1)c1cc2oc(=O)n(C)c2cc1Cl` (stereo not drawn) showed a TGI greater than 100 µM.

In the case of `O=C(CC1(O)C(=O)Nc2c(Cl)ccc(Cl)c21)c1ccc(F)cc1` (stereo not drawn), the TGI was greater than 100 µM.

As for `CC(CCC(=O)O)(c1ccc(O)cc1)c1ccc(O)cc1`, the TGI was greater than 100 µM.

For `O=C(O)/C=C(\c1nc2ccc([N+](=O)[O-])cc2[nH]1)c1cc(Cl)ccc1O`, the GI50 was 2.8 µM and the TGI is greater than 100 µM.

In turn, `O=C(N/C(=C\c1cccc([N+](=O)[O-])c1)c1nc2ccc([N+](=O)[O-])cc2[nH]1)c1ccccc1` returned a TGI greater than 100 µM.

Turning to `COc1cc(Nc2nc3ccccc3nc2-c2cccs2)cc(OC)c1OC`, the TGI was greater than 100 µM.

As for `COc1ccc(C(=O)c2sc(N(C)C)nc2-c2ccccc2)cc1`, the TGI was greater than 100 µM.

With `O=S(=O)(O)C1=C2Sc3ccccc3N=C2c2ccccc2C1`, the TGI was found to be 30.3 µM.

`CC/C=C\C[C@@H](O)C/C=C1/C(=O)C=C[C@H]1C/C=C\CCCC(=O)OC`: the GI50 was 5.17 µM and the TGI was determined as 17.5 µM.

For the molecule `Nc1nc2c(nnn2C2CC(O)C(CO)O2)c(=O)[nH]1` (stereo not drawn), the GI50 is 5.02 µM and the TGI was greater than 100 µM.

The molecule `c1ccc(CCCCNCc2cc(CNCCCCc3ccccc3)cc(CNCCCCc3ccccc3)c2)cc1` came in with a TGI of 2.55 µM.

In the case of `O=P1(O)c2ccccc2CCc2ccccc21`, the TGI is greater than 100 µM.

The molecule `CCOC(=O)c1cc2c([nH]1)c(O)cc1c2ccn1Cc1ccccc1` yielded a TGI of 46.6 µM.

`O=c1c2ccccc2[nH]c2c(Cl)cc(Cl)c(NC3CCCCC3)c12` came in with a TGI greater than 100 µM.

Regarding `O=C(O)CCSC(=O)Nc1ccc([N+](=O)[O-])cc1`, the TGI was greater than 100 µM.

`CCOC(=O)N(NC(=O)NC(C)C)c1ccccc1`: the TGI was greater than 100 µM.

As for `Nc1cccc(S(=O)(=O)NCC(=O)O)c1`, the TGI is greater than 100 µM.

`CCOC(=O)c1c(NC(=O)c2cccs2)sc2c1CCC2` came in with a TGI greater than 100 µM.

Consider `CCCC/C=C/C/C=C/CCCCCCCCC(=O)OCC1CCCN2CCCCC12` (stereo not drawn), for which the TGI was greater than 100 µM.

Turning to `O=C1CSSCC(=O)Nc2ccccc2N1`, the TGI is greater than 100 µM.

The molecule `CC1CN1C(=O)NCCCCCCNC(=O)N1CC1C` (stereo not drawn) gave a TGI greater than 100 µM.

`N#CC(C#N)=C1Nc2ccccc2S1`: the GI50 was 22 µM and the TGI was determined as 60.7 µM.

On to `c1nc(N2CC2)c2cnn(C3CCCCO3)c2n1` (stereo not drawn), for which the TGI is greater than 100 µM.

As to `COc1ccc2c(c1)C(=O)c1c-2n(CCCn2ccnc2)c(=O)c2cc([N+](=O)[O-])ccc12`, the GI50 was less than 0.0164 µM and the TGI is greater than 28.9 µM.

On to `CCCCCCCC(=O)OCC/C=C/C1OC1C1OC(=O)/C=C\C=C\c2nc(oc2C)/C=C(/C)CCC2OC2C1OC(=O)NC(C)=O` (stereo not drawn), for which the GI50 was 0.0509 µM and the TGI was 4.31 µM.

As to `COc1ccc2c(c1)[n+](=O)c(C(=O)C/C(=N/OCCCc1ccccc1)C(=O)NC13CC4CC(CC(C4)C1)C3)c(C)n2[O-]`, the TGI is greater than 100 µM.

`COC(=O)c1cc2c(cc1CC1Cc3cc4c(cc3C1=O)CCC4)CCC2` (stereo not drawn) gave a TGI greater than 100 µM.

As to `NC(=O)NS(=O)(=O)c1ccc(N2N=C(C(F)(F)F)CC2c2cc(C(F)(F)F)cc(C(F)(F)F)c2)cc1` (stereo not drawn), the GI50 was 10.2 µM and the TGI amounted to 24.4 µM.

On to `O=C1c2[nH]c3ccc(Br)cc3c2CCN1Cc1ccc(Cl)cc1`, for which the TGI is 30.5 µM.

Consider `CCC(C)(C)C1CCC2c3c([nH]c4ccccc34)C3C(=O)N(c4ccc(OC)cc4)C(=O)C3C2C1` (stereo not drawn), for which the TGI was greater than 100 µM.

The molecule `Cc1ccc(/C(Cl)=C/C=C(C#N)C#N)cc1` gave a TGI of 26 µM.

In turn, `CCOCC(=O)N[C@H]1CCc2cc(OC)c(OC)c(OC)c2-c2ccc(OC)c(=O)cc21` yielded a TGI of 2.1 µM.

`Nc1nc(Cl)c(CO)c(NCC2(CO)CC(CCc3ccccc3)C2)n1` (stereo not drawn) came in with a TGI greater than 100 µM.

In the case of `CCCCCCCC[C@@H](O)CC(=O)N[C@@H](CC(N)=O)C(=O)N[C@@H](CCC(N)=O)C(=O)N[C@@H](CC(=O)c1cc(C)cc(O)c1C(=O)c1c(O)cccc1O)CC(C)C`, the GI50 is 28.9 µM and the TGI was greater than 100 µM.

With `COc1ccc2nc3c(C(=O)NCCN(C)C)cccc3nc2c1`, the TGI was found to be 38.4 µM.

Turning to `Cc1cc(N(CCC#N)CCC#N)ccc1/C=C1\N=C(c2cc([N+](=O)[O-])ccc2Cl)N(c2cccc(Cl)c2)C1=O`, the TGI is greater than 100 µM.

Take `NC(=S)N1N=C2c3ccccc3CC[C@@H]2[C@@H]1c1ccccc1`: the TGI was greater than 100 µM.

Molecule `O=C(N/N=C/C=C/c1ccccc1)[C@H](O)[C@@H](O)C(=O)N/N=C/C=C/c1ccccc1` registered a TGI greater than 100 µM.

In the case of `OC1(c2ccc(Cl)cc2)C(N2CCCC2)c2ccccc2C2=NCCN21` (stereo not drawn), the TGI was 63 µM.

Turning to `O/N=C/c1ncccc1C1OCCO1`, the TGI was greater than 100 µM.

`CC(C)(C)/C(=N\Nc1nc2ccccc2[nH]1)c1ccccn1` had a TGI greater than 100 µM.

As to `COc1cc2ncn(-c3cc(OCc4cccs4)c(C(N)=O)s3)c2cc1OC`, the GI50 is 3.67 µM and the TGI is greater than 25 µM.

Turning to `O=c1[nH]nc(-c2ccccc2)n1-c1ccncc1`, the TGI is greater than 100 µM.

Take `COc1ccc(CC2CCc3nc(N)nc(N)c3C2)cc1OC` (stereo not drawn): the TGI is greater than 88.5 µM.

For the molecule `CC1(C)OC2=C(CC1Br)C(=O)C(=O)c1ccccc12` (stereo not drawn), the GI50 is 1.88 µM and the TGI stood at 3.49 µM.

In turn, `Nc1nc(I)nc2c1ncn2C1OC(COS(N)(=O)=O)C(O)C1O` (stereo not drawn) had a TGI of less than 0.0159 µM.

Molecule `O=C1N[C@H]2c3c(Cl)sc(Cl)c3[C@@H](O)[C@H]2O1` came in with a TGI greater than 100 µM.

Consider `Clc1ccccc1-c1nc2ccc(C34CC5CC(CC(C5)C3)C4)cc2[nH]1`, for which the TGI is greater than 100 µM.

As for `COc1cc(C(=O)CBr)c(OC)cc1C`, the TGI was greater than 100 µM.

Take `CC/C=C\C[C@H](F)C/C=C1/C(=O)C=C[C@@H]1C/C=C\CCCC(=O)O`: the GI50 is 8.69 µM and the TGI amounted to 25 µM.

As to `COc1ccc(-c2nc(-c3nc4ccc(Cl)cc4[nH]3)c3ccccn23)cc1`, the GI50 is 5.63 µM and the TGI is 27.6 µM.

The molecule `O=C1c2cccc([N+](=O)[O-])c2C(=O)N1c1ncn[nH]1` yielded a TGI greater than 100 µM.

In turn, `CCOC(=O)c1oc2cc3c(c4c2c1-c1ccccc1N4C)C=CC(C)(C)O3` gave a TGI of 87.5 µM.

Turning to `CCN(CC)CCCC(C)Nc1c2ccc(Cl)cc2nc2ccc(O)cc12` (stereo not drawn), the GI50 was 1.56 µM and the TGI was determined as 6.12 µM.

On to `COc1cc(/C=C2/SC(c3ccccc3)N(c3ccccc3Cl)C2=O)cc(OC)c1OC` (stereo not drawn), for which the TGI was greater than 100 µM.

In turn, `COc1cc2ncnc(Nc3cccc(Cl)c3)c2cc1OC` displayed a TGI of 5.69 µM.

In the case of `C#CCNC(=O)c1cccc2c1cc(C)n2-c1nc2c(c(NCc3ccccc3)n1)CCCC2`, the GI50 is 0.248 µM and the TGI is 0.613 µM.

On to `CCOC(=S)SSSC(=S)OCC`, for which the TGI is greater than 100 µM.

Molecule `Cc1ccc(S(=O)(=O)c2ccsc2NC(=O)C(F)(F)F)cc1` gave a TGI greater than 100 µM.

Regarding `CN(C)c1ccc(/C=C2/NC(=S)NC2=O)cc1`, the TGI was greater than 100 µM.

`O=C1NC(=O)C(CCC(=O)c2ccc3ccccc3c2)C(=O)N1`: the TGI is greater than 100 µM.

As for `CC(=O)O[C@H]1C(=O)[C@@]2(C)C(C(OC(=O)c3ccccc3)[C@]3(O)CC(OC(=O)[C@H](OC(=O)CCC(=O)O)C(NC(=O)c4ccccc4)c4ccccc4)C(C)=C1C3(C)C)C1(OC(C)=O)COC1C[C@@H]2O` (stereo partly drawn), the GI50 was < 0.0164 µM and 0.0371 µM; the TGI was greater than 100 µM.

Turning to `COc1ccc(/C=C2\CCC(C)C3C2=NN(c2ccccc2)C3c2ccc(OC)c(OC)c2)cc1OC` (stereo not drawn), the TGI was determined as 19.7 µM.

Regarding `COc1ccc(N2C(=O)/C(=C/c3ccc(N(CCC#N)CCC#N)cc3C)N=C2c2cc([N+](=O)[O-])ccc2Cl)cc1`, the TGI is greater than 56.2 µM.

In the case of `CCCCCCCCn1ccc2cc(NC(=O)Cn3cc(CN4CCCC4)nn3)ccc21`, the GI50 is 1.63 µM and the TGI was determined as 3.15 µM.
